Results reported in ChEMBL document CHEMBL1201862, “PubChem BioAssay data set” (2004).
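Where inhibition never reached the appropriate level, the endpoint shown equals the highest concentration tested. Otherwise, values were interpolated linearly from a five-concentration, 48-hour dose response in 96-well plates. Here, GI50 denotes the concentration required for 50% inhibition of growth.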 The source made the active and inactive calls. Cut-off read from the data, not from the text of the source: active = GI50 up to about 1.1 µM and inactive = higher.

The compounds below were run on NCI-H322M (assay: inhibition of tumour cell growth, NCI panel, 48 h).
With `CC(=O)OC(C)c1cc2c(s1)C(=O)c1sccc1C2=O` (stereo unspecified) the GI50 was inactive: 1.95 µM.
In the case of `CN(O)C(=S)c1ccccc1`, the GI50 is reported as inactive: 7.41 µM.
In the case of `CNc1c2cccc(C)c2nc2c(C(=O)NCCN(C)C)cccc12`, the GI50 is reported as active: 0.0668 µM.
`CN(C)c1ccc(C=c2c3ccccc3n3c2c2ccccc2[n+]3C)cc1` was tested, and the GI50 was inactive: 1.77 µM.
For `O=[N+]([O-])c1ccc(C2c3c(O)nc(S)nc3Oc3nc(S)nc(O)c32)cc1`, the GI50 was inactive: > 100 µM.
In the case of `CCOC(=O)/C=C/CC(C)(C)COC(C)=O`, the GI50 is reported as inactive: > 10 µM.
In the case of `CN(C)CCOc1ccc2c(c1)C/C(=C/c1ncc([N+](=O)[O-])n1C)C2=O`, the GI50 is reported as inactive: 2.72 µM.
`COC(=O)/C=C1/OC(c2ccc(C)cc2)=C(Cl)C1=O` was tested, and the GI50 was inactive: 22.8 µM.
For `Cn1c(S)nc(C(N)=O)c1N`, the GI50 was inactive: > 100 µM.
`Cn1c(-c2ccccc2)cc(-c2cccs2)c1-c1ccsc1` was tested, and the GI50 was inactive: > 100 µM.
With `Clc1ccc(/C=N/Nc2nnc3c4ccccc4c4ncccc4c3n2)cc1` the GI50 was inactive: > 10 µM.
`N#CCC1C2CC3C(C2=O)C13` (stereo unspecified) was tested, and the GI50 was inactive: > 100 µM.
`CC[N+]1(C)CCC(O)(c2ccc(Cl)c(Cl)c2)C(C(=O)c2ccc(Cl)c(Cl)c2)C1` (stereo unspecified) was tested, and the GI50 was inactive: > 10 µM.
For `COc1cccc(C2CC23C(=O)NC(=O)NC3=O)c1` (stereo unspecified), the GI50 was inactive: > 100 µM.
With `COC(=O)C(/C(=N/NC(N)=O)C(=O)Nc1ccc(C)cc1)c1nc2ccc([N+](=O)[O-])cc2nc1O` (stereo unspecified) the GI50 was inactive: > 100 µM.
For `O=C(NNC(=O)c1ccc(Cl)cc1NC(=O)C12CC3CC(CC(C3)C1)C2)c1ccc(Cl)cc1`, the GI50 was inactive: 22.8 µM.
With `CCOC(=O)C(Cc1ccc2ccccc2c1)(Cc1ccc2ccccc2c1)C(C)=O` the GI50 was inactive: > 10 µM.
With `CCC1CCc2c(OC)ccc(OCC(=O)O)c2C1=O` (stereo unspecified) the GI50 was inactive: > 100 µM.
In the case of `Cc1nc2n(c1/C=C1/C(=O)Nc3cccc(Cl)c31)CCS2`, the GI50 is reported as inactive: > 100 µM.
With `COCCNc1cncc(C(N)=O)c1` the GI50 was inactive: > 100 µM.
For `CCCCCCC1=NOC(C(c2cc[nH]c2)N(C)[C@H](C(=O)OC)C(C)C)C1` (stereo partly specified), the GI50 was inactive: > 100 µM.
For `CC1=CC[C@H](C[C@H](C#CCCCC2OCCO2)O[Si](C(C)C)(C(C)C)C(C)C)C(=O)CC1`, the GI50 was inactive: > 100 µM.
`CC(=O)OC1COC(N2C(=O)C(=O)c3ccccc32)C(OC(C)=O)C1OC(C)=O` (stereo unspecified) was tested, and the GI50 was inactive: > 100 µM.
For `CSC1=NN(c2ccccc2)C(=O)C1=C(SC)SC`, the GI50 was inactive: 22.5 µM.
With `O=S1(=O)OCCOS(=O)(=O)C1(Cl)Cl` the GI50 was inactive: > 100 µM.
`COC(=O)C(=O)Cc1nc2ccccc2o1` was tested, and the GI50 was inactive: > 100 µM.
With `CO/N=[N+](\[O-])NC(C)C` the GI50 was inactive: > 100 µM.
For `C=C(COC(C)=O)CC(/C=C(\C)CCC=C(C)C)OC(C)=O` (stereo unspecified), the GI50 was inactive: > 100 µM.
With `COc1ccc2c(c1)CN1C(=N2)CSC1c1ccccc1Cl` (stereo unspecified) the GI50 was inactive: 19.6 µM.
In the case of `CCC(C)CN1C(=O)NC(C)(Cc2ccccc2)C1=O` (stereo unspecified), the GI50 is reported as inactive: > 100 µM.
With `O=C(O)C1C2c3ccccc3C(c3ccccc32)C1C(=O)NCC1CC1` (stereo unspecified) the GI50 was inactive: 82.8 µM.
For `CCCCCCCCCCCCN(O)C(=O)c1ccccc1`, the GI50 was inactive: 38.4 µM.
With `O=C1N/C(=N/N=C\c2ccccc2)N/C1=C/c1ccc(Cl)cc1` the GI50 was inactive: 38.6 µM.
For `C=C(Br)C(C)(Br)CCC(Br)C(C)(C)Cl` (stereo unspecified), the GI50 was inactive: 16.2 µM.
`COc1cc(C(Cc2ccccc2)NC(C)=O)oc(=O)c1` (stereo unspecified) was tested, and the GI50 was inactive: > 100 µM.
`C[C@H]1S[C@H](c2c(F)cccc2F)n2c1nc1ccccc12` was tested, and the GI50 was inactive: > 100 µM.
With `O=C(Cc1ccccc1)NN1C(=O)C(Cl)C1c1cc(Br)cc(Br)c1O` (stereo unspecified) the GI50 was inactive: 7.48 µM.
With `CSc1cc(-c2cccs2)sc1-c1cc(SC)c(-c2sc(-c3sc(-c4cccs4)cc3SC)cc2SC)s1` the GI50 was inactive: > 100 µM.
In the case of `CC(C)(CO)CNc1nc(N)nc(Cl)c1N`, the GI50 is reported as inactive: > 100 µM.
`Oc1ncnc2c1nnn2CCCn1nnc2c(O)ncnc21` was tested, and the GI50 was inactive: > 100 µM.
In the case of `COP(=N[Si](C)(C)C)(OC)OC`, the GI50 is reported as inactive: > 100 µM.
In the case of `COc1ccc(/C=C/C(=O)c2sc(-n3nc(-c4ccccc4)cc3-c3ccccc3)nc2C)cc1`, the GI50 is reported as inactive: > 100 µM.
In the case of `CC(=O)OCC1OC(n2c(=S)n(-c3ccc([N+](=O)[O-])cc3)c(=O)c3ccccc32)C(OC(C)=O)C(OC(C)=O)C1OC(C)=O` (stereo unspecified), the GI50 is reported as inactive: 35.7 µM.
`Cc1cc2cc3c(Cl)c(CCCl)c(C)nc3cc2c(Cl)c1CCCl` was tested, and the GI50 was inactive: 21.1 µM.
In the case of `COc1ccc2c(c1)-c1c(c3cc(OC)ccc3n1CCCN(C)C)CC2`, the GI50 is reported as inactive: 9.68 µM.
With `CCc1n[nH]c(=O)n1-n1c(C)ccc1C` the GI50 was inactive: > 100 µM.
